Data on 42 compounds can be found in ChEMBL document CHEMBL4888484, “Replenishing the malaria drug discovery pipeline: Screening and hit evaluation of the MMV Hit Generation Library 1 (HGL1) against asexual blood stage Plasmodium falciparum ,using a nano luciferase reporter read-out” (2022).

About 540 (0.36%) of roughly 150,000 compounds showed an effect of 50% or more. The list shows a part of the results.

This test has as its system Plasmodium falciparum. The test can be described thus: Primary screen in NF54 nanoGlo assay, in single point, at 2uM, 72h; a lower Z score goes with more inhibition. In kind it is functional, Erythrocyte. Particulars: timepoint 72 hour.
Consider `C[C@@H]1C(=O)N(c2nn(C)c3ccccc23)C(=O)N1C`, for which the % Inhibition (commonly the drop in the measured response relative to a control, in per cent) stood at 0% and the Z score is reported as -0.04.

As to `O=C(c1ccc2ccccc2n1)N1CC[C@H](c2nc(CCOCC3CC3)no2)C1`, the “% Inhibition” value was -14% and the Z score turned out to be 1.89.

Turning to `CCc1nc(C)cc(N2CCC3(CCOCC3)C2)n1`, the “% Inhibition” value is on record as 0% and the Z score is -0.05.

As for `Cc1cc(Br)cc(C(=O)NCCc2ccn(C)n2)c1`, the “% Inhibition” value is -11% and the Z score is recorded as 1.74.

As to `N#Cc1cnc(N2CCC(CNC(=O)c3ccn(C(F)F)n3)CC2)nc1N`, the “% Inhibition” value is reported as -10% and the Z score is on record as 2.08.

Take `COCCN1CCC[C@@]2(CCN(C(=O)c3ccccc3)C2)C1`: the “% Inhibition” value is reported as -9% and the Z score was 1.37.

For the compound `Cc1ccc(N2C(=O)N(Cc3ccc(F)cc3)S(=O)(=O)c3cccnc32)cc1`, the “% Inhibition” value is recorded as -13% and the Z score worked out at 1.3.

Turning to `CN1C(=O)CC[C@]2(CNC(=O)Cc3ccccc3)CCC=C12`, the “% Inhibition” value is given as -12% and the Z score amounted to 1.72.

As to `COC(=O)c1cn(Nc2nc(C)cc(C)n2)cc2c(O)nnc1-2`, the “% Inhibition” value is reported as 6% and the Z score is on record as -0.76.

For the compound `C[C@H]1CCCN(c2ccc(C(N)=O)cc2NC(=O)CCn2cnnn2)C1`, the “% Inhibition” value is reported as -3% and the Z score is given as 0.34.

Consider `CCO[C@@H](C)c1nc(-c2cc(C)cc(C)n2)no1`, for which the “% Inhibition” value was 0% and the Z score turned out to be 0.01.

Consider `CCc1nnc(Cn2cc(C(C)=O)c(=O)n(C)c2=O)n1C`, for which the “% Inhibition” value was -2% and the Z score was 0.26.

As for `CC(=O)N1CCN(C2CN(Cc3nc(C)no3)CC2C)CC1` (centres undefined), the “% Inhibition” value is -17% and the Z score is 2.24.

With `Cc1ccc(NC[C@H]2CCN(Cc3ncc(C(C)(C)C)o3)C2)nc1`, the “% Inhibition” value is -8% and the Z score is reported as 1.11.

For the compound `CC(C)c1cc(CN2CC[C@](C)(O)[C@@H](O)C2)on1`, the “% Inhibition” value is -4% and the Z score was 0.84.

Take `COc1ccc(C(=O)C[n+]2cc(-c3cccc(Br)c3)n(C)c2N)cc1`: the “% Inhibition” value is on record as 3% and the Z score is on record as -0.43.

Take `C[C@@H](NC(=O)NCC1CCN(c2cnn(C)c(=O)c2)CC1)c1ccc(F)cc1`: the “% Inhibition” value was 1% and the Z score is -0.12.

Take `CCCS(=O)(=O)N(C)CCn1ccnc1`: the “% Inhibition” value was -11% and the Z score is 2.12.

For the compound `Cc1cc(C(=O)N2CCC[C@H](N(CCN3CCOCC3)S(C)(=O)=O)C2)ccn1`, the “% Inhibition” value is listed as -12% and the Z score is given as 1.59.

Take `O=C(CC1CCOCC1)NCc1ccccn1`: the “% Inhibition” value is 39% and the Z score was -5.66.

Take `CN1CCC(N(C)C(=O)C23CCC(C)(C(=O)C2=O)C3(C)C)CC1` (centres undefined): the “% Inhibition” value worked out at 12% and the Z score is -1.45.

In the case of `CCCCc1nc(CN2CCC[C@H](OC)C2)c[nH]1`, the “% Inhibition” value is listed as -13% and the Z score is 1.84.

As for `O=C(CC1CCN(Cn2cnc3ccccc32)CC1)N1CCCC1`, the “% Inhibition” value is -42% and the Z score was found to be 4.98.

For the compound `Cn1cc([C@@H]2CS(=O)(=O)CCCN2Cc2ccccc2F)cn1`, the “% Inhibition” value amounted to 8% and the Z score is recorded as -0.91.

In the case of `CCn1cc(CN2CCC(C(=O)NCc3ccc(N(C)C)cc3)CC2)c2cc(OC)ccc21`, the “% Inhibition” value was 7% and the Z score is reported as -0.91.

With `CC1(C)C[C@@H](NC(=O)c2ccc(OCc3ccccc3)nc2)CCO1`, the “% Inhibition” value is -7% and the Z score is listed as 0.96.

On to `c1cnn2c(-c3ccc4c(c3)OCCO4)cnc2c1`, for which the “% Inhibition” value amounted to 5% and the Z score is on record as -0.48.

With `Cc1cc(C(=O)N[C@H]2CCN(Cc3ccnc4ccccc34)C[C@@H]2O)no1`, the “% Inhibition” value was -2% and the Z score was 0.34.

For `CCc1nnc(N2CC[C@@]3(CCCN(C4CCCCC4)C3=O)C2)s1`, the “% Inhibition” value is -20% and the Z score is listed as 2.13.

Turning to `CCc1n[nH]c(C(=O)NC(C)(C)c2nccs2)c1Br`, the “% Inhibition” value is on record as -15% and the Z score amounted to 1.58.

For `Cc1cnc(C)c(N2CCC(Oc3ccc(C#N)cc3)CC2)n1`, the “% Inhibition” value is given as 4% and the Z score was -0.41.

Turning to `COc1ccc2c(c1)C[C@@H](N1CCC(CCC(=O)N3CCOCC3)CC1)CC2`, the “% Inhibition” value is given as -13% and the Z score is 1.72.

As to `C[C@H]1CCCN(C(=O)c2cn(-c3cc(-c4nc(C(C)(C)C)no4)ccn3)cn2)C1`, the “% Inhibition” value was -15% and the Z score came to 2.42.

Take `CN(CC1(C)COC1)c1ccnc(C(=O)NCCO)c1`: the “% Inhibition” value turned out to be 3% and the Z score was -0.36.

Consider `CN1CCN(c2nc3c(c(N(C)C)n2)CN(S(=O)(=O)c2ccccc2)CC3)CC1`, for which the “% Inhibition” value is -2% and the Z score came out at 0.15.

Consider `COc1ccc(CC[C@H](C)N2CCn3nc(C(=O)O)cc3C2)cc1`, for which the “% Inhibition” value is given as -10% and the Z score is given as 1.82.

Regarding `COc1ccc(N/N=C(/C(C)=O)N2CCCc3ccccc32)cc1`, the “% Inhibition” value is recorded as 29% and the Z score was -3.32.

Regarding `O=C(Nc1nnc(C2CC2)s1)c1ccc2c(c1)OCO2`, the “% Inhibition” value is reported as -5% and the Z score is 0.7.

Consider `O=C(NC[C@H]1CCC[C@@H](CO)C1)c1c[nH]c(C(F)(F)F)c1`, for which the “% Inhibition” value is reported as -3% and the Z score is reported as 0.5.

For the compound `COc1ccc(-c2noc(-c3ncn4c3CO[C@H](c3ccc(F)cc3)C4)n2)cc1OC`, the “% Inhibition” value was -10% and the Z score came to 0.88.

With `CC(=O)N1CCCC[C@H]1c1noc(COc2ccc(C)cc2)n1`, the “% Inhibition” value turned out to be 20% and the Z score is -2.69.

As to `O=C(Cn1cncn1)N1C[C@H]2CC=CC[C@H]2C1`, the “% Inhibition” value was -8% and the Z score came to 1.57.
